Hit rate of the full screen: of about 50,000 compounds, about 800 (1.6%) showed an effect of 50% or more. Some of the results follow.
biological target: Bcl-2-like protein 10 (Homo sapiens) (UniProt Q9HD36); assay: Phenotype converters, Bcl-B/TR3 peptide binding displacement, primary biochemical FP (AID 1240); conditions: GST-Bcl-B / FITC-TR3 peptide fluorescence polarization; stronger effect = higher value; compound at 3.75 mg/L;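 further: 0% = Bcl-B with tracer peptide and DMSO and 100% = tracer peptide lacking Bcl-B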
Chain of UniProt Q9HD36 (Q9HD36 whole entry, looked up): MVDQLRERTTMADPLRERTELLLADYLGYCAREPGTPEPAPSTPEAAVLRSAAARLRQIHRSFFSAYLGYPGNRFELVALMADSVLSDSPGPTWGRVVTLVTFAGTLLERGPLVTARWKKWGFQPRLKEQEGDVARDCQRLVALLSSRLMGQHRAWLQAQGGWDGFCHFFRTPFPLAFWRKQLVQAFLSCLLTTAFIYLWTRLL

Row | Compound | displacement [%]
1 | FC(F)(F)c1ccccc1/C=N\N1CCN(c2ccccc2)CC1 | -4.5
2 | Cc1nn(-c2ccccc2)c2c1C(O)n1c(nc3ccccc31)S2 (configuration not stated) | 11.6
3 | CCC(=O)Nc1ccc(N2CCN(C(C)=O)CC2)cc1 | 12.9
4 | COc1ccc(CCNC(=O)C(=O)NCC2CCCO2)cc1OC (configuration not stated) | 6.7
5 | COc1ccc2c(c1)-c1c(sn(-c3ccc(C)c(C)c3)c1=S)C(C)(C)N2 | 3.7
6 | Cc1cccc(N2C(=O)CC(SC(=N)N3N=C(c4cccs4)CC3c3ccc(Br)cc3)C2=O)c1 (configuration not stated) | 5.6
7 | COC(=O)CCC(=O)Nc1c(C)cc(C)cc1C | 10.7
8 | S=C(S)N(CCN(Cc1cccs1)C(=S)S)Cc1cccs1 | 15.9
9 | COc1ccccc1-c1nnc(-c2sc3cc(Cl)ccc3c2Cl)o1 | 7.3
10 | COCCCNC(=O)c1cc(Cl)ccc1Cl | 0.8
11 | Cc1onc(-c2c(Cl)cccc2Cl)c1C(=O)NCCc1ccccc1 | 2.7
12 | CCN(CC)c1ccc(NC(=S)Nc2ccccc2)cc1 | -9.4
13 | CCNC(=S)NCCc1ccc(S(N)(=O)=O)cc1 | 16.6
14 | Cc1cccc(N2C(=O)/C(=C/c3ccc(N(C)C)cc3)SC2=S)c1 | -5.4
15 | Cc1ccc2nc(/C(C#N)=C/c3cc4c(cc3[N+](=O)[O-])OCO4)[nH]c2c1 | -10.2
16 | O=C(NCCCOC(=O)c1ccccc1Br)c1ccccc1Br | -2.7

Row | Compound | displacement [%]
17 | O=C(Nn1cnnc1)c1ccc(F)cc1 | -5.3
18 | Cc1ccc(C(C)C)c(OC(=O)/C=C/c2ccc([N+](=O)[O-])s2)c1 | 1
19 | O=C(/C=C(\Cl)c1ccc([N+](=O)[O-])cc1)c1ccccc1 | 3.4
20 | O=C(O)C1C2CCC(O2)C1C(=O)NCc1ccco1 (configuration not stated) | -5
21 | CCc1ccccc1NC(=O)c1c(NC(=O)c2ccccc2Cl)sc2c1CCC2 | 61.2
22 | COc1ccc2nc(SCC(=O)Nc3ccccc3F)[nH]c2c1 | 21
23 | CN1CCN(CCOCCOc2cccc3ccccc23)CC1 | -6
24 | Cc1c(Br)c([N+](=O)[O-])nn1CC(=O)N1CCN(C)CC1 | -9.3
25 | COc1cc(NC(=O)COc2ccc(Br)c(C)c2)cc(OC)c1 | -3.8
26 | O=C(NCCN1CCN(Cc2ccccc2)CC1)C(=O)Nc1ccc(Cl)cc1 | 10.9
27 | Cc1ccccc1CN1CCN(S(=O)(=O)c2ccc(Cl)cc2)CC1 | -2.3
28 | CCOC(=O)c1c(C)sc2c1N(C(C)=O)c1cc(Br)ccc1S2 | -6
29 | CC(C)(C)C(=O)Nc1cccc(-c2nnc(-c3ccco3)o2)c1 | 11.2
30 | CCOC(=O)c1c(-c2ccc(Br)cc2)csc1NC(=O)c1ccc(OCC)c(OCC)c1 | -6.6
31 | CCc1nc2ccccc2n1CC(O)COc1ccc(C(=O)O)cc1 (configuration not stated) | -7.3
32 | O=C(/C=C/c1ccco1)Nc1ccccc1C(=O)O | 17

Reference: PubChem BioAssay AID1240 (Sanford-Burnham Center for Chemical Genomics, 2008)
